# Measured values reported in article PMC4336329 (PLoS ONE, 2015).
# Out of some 310,000 compounds screened, about 2,200 (0.71%) showed an effect of 50% or more. The effect is printed as a negative number. The list shows a part of the results.
# Target: human ether-à-go-go-related gene (hERG) potassium channel (human, UniProt Q12809)
# Experiment: primary screen, population patch clamp on CHO cells stably expressing hERG
# Chain of human ether-à-go-go-related gene (hERG) potassium channel (Q12809 whole entry, looked up): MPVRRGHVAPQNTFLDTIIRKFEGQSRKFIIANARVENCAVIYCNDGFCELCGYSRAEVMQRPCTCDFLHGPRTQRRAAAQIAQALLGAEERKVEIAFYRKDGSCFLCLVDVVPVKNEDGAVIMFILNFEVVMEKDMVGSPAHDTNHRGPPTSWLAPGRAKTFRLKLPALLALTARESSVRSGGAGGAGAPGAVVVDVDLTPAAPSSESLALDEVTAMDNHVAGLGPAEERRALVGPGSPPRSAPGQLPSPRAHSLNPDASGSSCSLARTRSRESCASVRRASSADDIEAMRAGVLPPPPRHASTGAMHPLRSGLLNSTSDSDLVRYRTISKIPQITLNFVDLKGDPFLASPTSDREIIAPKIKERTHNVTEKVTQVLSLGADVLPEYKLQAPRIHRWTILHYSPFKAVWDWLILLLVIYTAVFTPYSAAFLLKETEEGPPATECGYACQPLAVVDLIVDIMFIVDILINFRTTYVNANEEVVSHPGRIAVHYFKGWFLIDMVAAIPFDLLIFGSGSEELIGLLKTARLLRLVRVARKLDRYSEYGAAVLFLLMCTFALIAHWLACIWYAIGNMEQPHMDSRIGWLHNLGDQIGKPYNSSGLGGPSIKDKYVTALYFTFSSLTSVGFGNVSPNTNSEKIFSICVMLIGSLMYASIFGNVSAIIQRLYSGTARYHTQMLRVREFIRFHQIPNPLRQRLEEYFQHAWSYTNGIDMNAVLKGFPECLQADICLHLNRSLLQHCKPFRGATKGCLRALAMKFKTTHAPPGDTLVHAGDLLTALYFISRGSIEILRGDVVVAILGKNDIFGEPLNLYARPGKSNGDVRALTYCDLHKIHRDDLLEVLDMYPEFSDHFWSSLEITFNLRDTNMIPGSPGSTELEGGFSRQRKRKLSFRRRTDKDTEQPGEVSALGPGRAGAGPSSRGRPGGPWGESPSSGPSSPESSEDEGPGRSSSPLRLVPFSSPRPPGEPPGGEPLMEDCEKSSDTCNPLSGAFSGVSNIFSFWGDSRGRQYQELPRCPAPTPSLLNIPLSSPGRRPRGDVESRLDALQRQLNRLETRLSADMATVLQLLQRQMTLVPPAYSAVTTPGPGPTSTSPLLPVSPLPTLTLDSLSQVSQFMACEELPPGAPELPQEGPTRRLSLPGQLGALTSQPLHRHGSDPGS
row,Compound,"hERG current change (%, negative = inhibition) at 1uM"
1,O=C(CSCc1ccccc1)N1CCN(Cc2ccc3c(c2)OCO3)CC1,4.72%
2,O=C(COC(=O)c1ccc(Cl)nc1)NC(=O)c1ccc(OC(F)F)cc1,-6%
3,O=C(COC(=O)CNC(=O)c1ccc(Cl)c([N+](=O)[O-])c1)NNC(=O)c1cccs1,16.6%
4,CC1(C)CN=C(NCc2ccccc2Cl)S1,-11.3%
5,Cc1onc(-c2ccccc2Cl)c1C(=O)NCc1ccccc1,18.2%
6,COc1cc(CN2CCC(C(=O)N3CCCC(C)C3)CC2)cc(OC)c1O.O=C(O)C(=O)O (centres unmarked),10.5%
7,CC1CCN(CCCNC(=O)CN2C(=O)CSc3ccc(S(=O)(=O)N4CCC(C)CC4)cc32)CC1,-13.9%
8,O=C(NNS(=O)(=O)c1ccc(Cl)cc1)NC1CCCCC1,8.84%
9,COC(=O)c1cc(C#N)c(NCc2ccccc2)nc1C,-2.99%
10,NC(=O)c1ccc(NC(=O)COC(=O)CC(NC(=O)c2ccccc2Cl)c2ccccc2)cc1 (centres unmarked),8.54%
11,CCCCCCC#Cc1cncc(C(=O)NNC(=O)Nc2cc(Cl)cc(Cl)c2)c1,13.8%
12,Cc1ccc(/C=N/NC(=O)CNC(=O)c2ccc(C)c([N+](=O)[O-])c2)o1,10.3%
13,O=C(Nc1ccc(Cl)cc1)Nc1ccc(C(=O)N2CCOCC2)cc1,1.18%
14,CCc1nc(SCC(=O)Nc2ccccc2)c2c(=O)n(C)c(=O)n(C)c2n1,8.29%
15,O=C(/C=C/c1ccc(F)cc1)OCC(=O)c1ccc[nH]1,7.97%
16,CC1=CC2=NC(=O)CC(C)(C(=O)N(CC(=O)NC3CCCC3)c3ccccc3C)N2C=C1 (centres unmarked),11.9%
17,CN1C(=O)C(=Cc2ccc(N3CCOCC3)o2)C(=O)N(C)C1=S,-3.23%
18,CCOC(=O)c1ccc(N2C(=O)c3n[nH]c(-c4ccco4)c3C2c2ccc([N+](=O)[O-])cc2)cc1 (centres unmarked),1.49%
19,Cc1cc(C)cc(NC(=O)c2cc(=O)c3ccccc3o2)c1,12.3%
20,O=C(COc1ccccc1)Nc1ccc(S(=O)(=O)NCc2ccco2)cc1,-4.21%
21,Cc1ccc(NC(=O)COC(=O)c2ccc(CN3CCCC3=O)cc2)c(Cl)c1,18.5%
22,CC(C)OCCCNC(=O)Cc1ccc(F)cc1,7.06%

row,Compound,"hERG current change (%, negative = inhibition) at 1uM"
1,COc1cccc(NC(=O)Cn2nnc(C(=O)NCc3ccc4c(c3)OCO4)c2N)c1,13%
2,C/C(=N\NC(=O)c1cc(-c2ccc(O)cc2)nc2ccccc12)c1cccnc1,5.94%
3,O=C(NC(=S)Nc1ccc(S(=O)(=O)N2CCCCC2)cc1)c1ccc(Cl)cc1,14.3%
4,CC(C)C(OC(=O)c1nsc(Cl)c1Cl)C(=O)NC(C)(C)C (centres unmarked),8.79%
5,Nc1nc(-c2ccc(Br)cc2)cc(C(F)(F)F)n1,18.4%
6,CC(C)[C@H](NC(=O)c1ccccc1)C(=O)OCC(=O)NCCc1ccc(F)cc1,-7.04%
7,COc1ccc(CNc2nc3c(c(=O)n(Cc4ccc(Cl)cc4)c(=O)n3C)n2C)cc1,10.8%
8,O=C(Cc1ccccc1)NN1C(=O)/C(=C/c2ccccc2C(=O)O)SC1=S,2.93%
9,COc1cc(C2C(C(=O)c3ccco3)=C(O)C(=O)N2CC2CCCO2)ccc1O (centres unmarked),8.5%
10,COc1cc(/C=C/CO)cc(OC)c1OC/C=C(\C)CCC=C(C)C,11.7%
11,C/C(CC(=O)Nc1cc(C)ccn1)=N\NC(=O)c1ccc(C)cc1,-0.18%
12,CC1(C)N=C(C(=O)c2ccccc2)N(O)C1(C)O (centres unmarked),9.63%
13,Cc1[nH]c(=O)[nH]c(=O)c1N(C)C,7.28%
14,COc1ccc(CN2CC(C(=O)NCC3CCCO3)CC2=O)cc1 (centres unmarked),-7.82%
15,COc1ccc(Cn2ccnc2SCC(=O)NC2CCCCC2)cc1,10.9%
16,CCn1nnnc1SCC(=O)Nc1nnc(C(C)C)s1,9.84%
17,O=C(COc1ccc2c3c(c(=O)oc2c1)CCCC3)NCc1cccnc1,-0.207%
18,c1ccc(-c2csc(-c3cccnc3)n2)cc1,11.6%
19,Clc1ccccc1Nc1nc(-c2ccncc2)nc2ccccc12,6.68%
20,CCCCOC(=O)n1c(=O)oc2ccc(S(=O)(=O)N3CCCCC3)cc21,5.13%
21,Clc1ccccc1-c1nc2ccccc2c2nc3ccccc3n12,3.2%
22,COc1cc(OC)c2c(-c3ccccc3)cc(=O)oc2c1C(CCN1CCN(c2ccccc2)CC1)c1ccc(N(C)C)cc1 (centres unmarked),7.25%
